Assay results published in article PMC7819943, “Rice protein-binding microarrays: a tool to detect cis-acting elements near promoter regions in rice”.
Some of the results follow.

biological target: T1, OsWOX13 (Oryza sativa, UniProt Q5QMM3 1-267); experiment: protein-binding microarray (RPBM); PBS, 2% BSA, 51.3 ng/ul salmon testes DNA, 50 uM zinc acetate, 200 nM TF, 25 C, 1 h; high values mean tight binding; conditions: protein: recombinant; tags: N-terminal polyhistidine and DsRed monomer fusion (pET32a); label: CyDye5-dUTP incorporated in the synthesized complementary strand; 3' TTTTT single-stranded linker to array surface; dsDNA, one strand shown
T1 sequence: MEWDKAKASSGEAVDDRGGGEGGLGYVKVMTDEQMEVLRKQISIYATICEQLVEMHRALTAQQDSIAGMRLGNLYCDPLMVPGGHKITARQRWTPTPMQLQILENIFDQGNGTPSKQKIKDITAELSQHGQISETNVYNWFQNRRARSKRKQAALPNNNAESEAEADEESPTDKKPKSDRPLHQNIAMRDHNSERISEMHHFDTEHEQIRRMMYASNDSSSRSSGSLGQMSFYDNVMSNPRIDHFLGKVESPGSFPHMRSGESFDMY
In short: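 Transcription factors were each fused at the N-terminus to a polyhistidine tag plus DsRed and expressed in E. coli BL21-CodonPlus before Ni–NTA purification. Binding to a double-stranded custom Agilent array was carried out with 200 nM protein at 25 °C for 1 h in PBS, 2% BSA, salmon testes DNA and 50 µM zinc acetate. The binding signal is per-feature fluorescence intensity, in arbitrary units, on an Axon 4000B scanner.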

Row | Sequence | binding signal
1 | AGGGATGGGATGACATAATAATTTGCATATGTCACACGACCGGAGTCACCTAGTGCAG | 5380 fluorescence intensity (a.u.)
2 | CCGTAATGGATCGAGGATGTCCGTCTCCTTAACCCACTTCCGGAGTCACCTAGTGCAG | 3300 fluorescence intensity (a.u.)
3 | TGTTGAAGATGATTGGATGAACATATATGTGCAAATTTGCCGGAGTCACCTAGTGCAG | 24300 fluorescence intensity (a.u.)
4 | CCAGCTTAATTGAGCCTGATTAGCCGAATCCATAATTGTGCGGAGTCACCTAGTGCAG | 63800 fluorescence intensity (a.u.)
5 | CCTGACATGAAGGTGGATGTAATGGAGGATATGCATTGGGCGGAGTCACCTAGTGCAG | 3830 fluorescence intensity (a.u.)
6 | ACTGTAATGGGATTGTTTGTGTGCTTCCTGCCTTCTCATACGGAGTCACCTAGTGCAG | 7990 fluorescence intensity (a.u.)
7 | ACTCTCATGACAGCTCTATCAGATCATAAGAAATTTGCAACGGAGTCACCTAGTGCAG | 3220 fluorescence intensity (a.u.)
8 | GTTAACTAATTAGGGCGTATGAACAAGTCATCGTGGCAGTCGGAGTCACCTAGTGCAG | 23000 fluorescence intensity (a.u.)
9 | CCTACTTGGTTGATTGAGCGTTAGGAAAACATATCCATACCGGAGTCACCTAGTGCAG | 27900 fluorescence intensity (a.u.)
10 | ATTAATCATGTTTTATCATCTAACAACAATGAAAATACTACGGAGTCACCTAGTGCAG | 3430 fluorescence intensity (a.u.)
11 | CAACATAATTTCAGTTGCTAATGCTAAGGCCTCTCACAGTCGGAGTCACCTAGTGCAG | 6560 fluorescence intensity (a.u.)
12 | TCTCCAAGATTGATCCGCATCTCCAACTAAACCCTCTCCTCGGAGTCACCTAGTGCAG | 7230 fluorescence intensity (a.u.)
13 | AATAATTCACAGTAAATAACATTTATATAAATATTTTGGACGGAGTCACCTAGTGCAG | 5860 fluorescence intensity (a.u.)
14 | AGCACAAATTTGTTCATCTTATTAATGTATATGTGTTGCTCGGAGTCACCTAGTGCAG | 16600 fluorescence intensity (a.u.)
15 | CTAATGATGGATTAATTAGGCTTAATAAATTTGACTTGACCGGAGTCACCTAGTGCAG | 46400 fluorescence intensity (a.u.)
16 | ATTTTGATTAGTGCGTTTGATTAGTGGTGTTTATTATGTCCGGAGTCACCTAGTGCAG | 46100 fluorescence intensity (a.u.)
17 | CTATGAATGATACATTGAAATTAGTACTAAGAAAATTTGCCGGAGTCACCTAGTGCAG | 8360 fluorescence intensity (a.u.)
18 | AACGCAATCAATTGTCCCTTATTTCCAGTGACATTCCTTACGGAGTCACCTAGTGCAG | 9760 fluorescence intensity (a.u.)
19 | GGATTAAACTTATTGATGACATACCGGTGGAGTCAATGGACGGAGTCACCTAGTGCAG | 10700 fluorescence intensity (a.u.)
20 | AAATAGTTAGATTGATAGATAAAATCATAGAAATTATTTTCGGAGTCACCTAGTGCAG | 12700 fluorescence intensity (a.u.)
21 | TCCCACATTAAATTTACTCATTAGTTGTTAGGAATCGACACGGAGTCACCTAGTGCAG | 6120 fluorescence intensity (a.u.)

Row | Sequence | binding signal
22 | GATTTAGGGAATTGCAGTTGACTGACTTTAGCAAATACGACGGAGTCACCTAGTGCAG | 3510 fluorescence intensity (a.u.)
23 | CACATAAACAGTTTGATGTTAAGGTCTCACAGCACAAGGCCGGAGTCACCTAGTGCAG | 3550 fluorescence intensity (a.u.)
24 | CACTCAATTAAAAGAGATTTCGTCAGCTCTTTTCCTTCAACGGAGTCACCTAGTGCAG | 9280 fluorescence intensity (a.u.)
25 | AAGATGATGACTGCCTCTGTGCCATTGAAAAGTTCGAACCCGGAGTCACCTAGTGCAG | 5810 fluorescence intensity (a.u.)
26 | AGCTGCTCAATCAAGATATGTATATGTGCACGCAGCTAGCCGGAGTCACCTAGTGCAG | 7520 fluorescence intensity (a.u.)
27 | CACTTATTTGATTTATAAGTGAGCTCGCGGGTTGGCCCGCCGGAGTCACCTAGTGCAG | 8070 fluorescence intensity (a.u.)
28 | TCACAATCATCGTCATTACATATCCCATATATCCCATTCACGGAGTCACCTAGTGCAG | 9660 fluorescence intensity (a.u.)
29 | GCAGTTGACAAAGTAGCAAATTTTGCCACCTGTTTCAGTGCGGAGTCACCTAGTGCAG | 3240 fluorescence intensity (a.u.)
30 | AAAGAAACAATTAATCACATCATCCATATCAAGTTAGACCCGGAGTCACCTAGTGCAG | 7370 fluorescence intensity (a.u.)
31 | ACATCTGATGTGATAGAGACTTGTCCAATCTAAACAGTGTCGGAGTCACCTAGTGCAG | 8950 fluorescence intensity (a.u.)
32 | TAGCATGTTTAAATTGATGATAAGTAGAATTACTTATCCTCGGAGTCACCTAGTGCAG | 18600 fluorescence intensity (a.u.)
33 | CCAAATCAACGGTTTTGATGGGCCTAAGGCCTGAAACCATCGGAGTCACCTAGTGCAG | 4660 fluorescence intensity (a.u.)
34 | GCTGATTACAAGTATATTACTGGATTAGAGAGCCAGTTACCGGAGTCACCTAGTGCAG | 20500 fluorescence intensity (a.u.)
35 | CTAAACATGATATCACCAACTTCATCCTACCAAAATTTGGCGGAGTCACCTAGTGCAG | 4320 fluorescence intensity (a.u.)
36 | AGTAATTAGCATCACCTCCCTCCTTGCTTATCAACACGTACGGAGTCACCTAGTGCAG | 28100 fluorescence intensity (a.u.)
37 | ATGACAGATTCCGTTTTGTAGGAGCAGCGCACCATTTCAGCGGAGTCACCTAGTGCAG | 5570 fluorescence intensity (a.u.)
38 | TATCTATAAATCATTAACATATGGTCTCACATCTCATACACGGAGTCACCTAGTGCAG | 3460 fluorescence intensity (a.u.)
39 | GTTTTAAAATATAAATGATTTTGGTTTAATAGTATGCATTCGGAGTCACCTAGTGCAG | 4220 fluorescence intensity (a.u.)
40 | ATAATTATTTTAGTTTTAATTATCATAAACTTGGAAAATACGGAGTCACCTAGTGCAG | 13000 fluorescence intensity (a.u.)
41 | TTTAGCAATTAAAAGTAATTTATGTGTAATATATTTACATCGGAGTCACCTAGTGCAG | 10100 fluorescence intensity (a.u.)
42 | AGATAATTTAGACCCACGATAATTGGATATTTCGACCGATCGGAGTCACCTAGTGCAG | 36200 fluorescence intensity (a.u.)
